# Laboratory results from PubChem BioAssay AID1460 (National Center for Advancing Translational Sciences (NCATS), 2008).
# In all, about 270,000 compounds went through this assay and about 5,800 (2.1%) were called active. Inconclusive means that the source gave no clear call. Such entries were picked first, then a sample of the others. The call rests on the fitted dose curve; in most records, active means well fitted inhibition curve with a large enough effect; inconclusive means small, poorly fitted or top-dose-only effect; inactive means flat fitted curve, though single readings scatter. Potencies of inconclusive entries are doubtful fits and often do not repeat.
# Target: Microtubule-associated protein tau (Homo sapiens) (UniProt P10636)
# Sequence of UniProt P10636 (P10636 whole entry, looked up): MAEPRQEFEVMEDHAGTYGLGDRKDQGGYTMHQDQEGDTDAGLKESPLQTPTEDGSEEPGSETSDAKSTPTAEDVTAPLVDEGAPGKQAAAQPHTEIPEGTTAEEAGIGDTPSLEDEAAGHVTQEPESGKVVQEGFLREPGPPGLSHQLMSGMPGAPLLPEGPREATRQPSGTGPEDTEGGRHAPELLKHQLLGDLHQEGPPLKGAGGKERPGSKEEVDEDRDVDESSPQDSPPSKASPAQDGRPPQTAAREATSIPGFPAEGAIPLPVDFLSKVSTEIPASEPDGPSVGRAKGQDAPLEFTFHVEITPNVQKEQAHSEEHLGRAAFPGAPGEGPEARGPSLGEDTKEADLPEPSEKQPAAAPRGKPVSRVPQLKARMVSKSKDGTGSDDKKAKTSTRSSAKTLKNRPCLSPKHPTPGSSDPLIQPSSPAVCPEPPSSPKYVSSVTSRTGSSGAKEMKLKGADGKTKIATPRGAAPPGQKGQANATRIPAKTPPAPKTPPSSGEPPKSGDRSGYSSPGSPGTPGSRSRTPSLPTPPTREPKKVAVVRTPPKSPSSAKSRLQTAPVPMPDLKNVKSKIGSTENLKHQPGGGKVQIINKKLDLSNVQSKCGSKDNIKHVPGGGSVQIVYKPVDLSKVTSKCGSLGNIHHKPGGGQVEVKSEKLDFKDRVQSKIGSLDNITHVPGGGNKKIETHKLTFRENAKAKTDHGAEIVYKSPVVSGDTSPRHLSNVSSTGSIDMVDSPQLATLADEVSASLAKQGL
# Assay: qHTS for Inhibitors of Tau Fibril Formation, Thioflavin T Binding; further: nearly all actives have a fitted effect of over 55% in size
# Conditions: recombinant tau K18 P301L, heparin-induced fibrillization, ThT fluorescence; series mostly up to 57.4 µM
# In short: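 ThT emission at 510 nm, taken 1 hr after adding 30 uM dye, quantifies aggregates formed when 20 uM heparin acts on human tau K18 P301L for 6 hr at 37 C.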
# Potency means the concentration at half of the fitted maximal effect; tags describe the fitted curve by direction and shape.
row,Structure (SMILES),Potency
1,O=C(NCc1cccnc1)c1ccc(Cn2c(=S)[nH]c3ccc(Br)cc3c2=O)cc1,inactive
2,O=[N+]([O-])c1ccc(/C=N/Nc2nc(N3CCCC3)nc(N3CCCC3)n2)o1,active: 17.8 µM
3,Cc1ccc(NC(=O)/C(Cl)=C/c2ccccc2)cc1C,"inconclusive: 2.82 µM [inhibitor, full curve]"
4,C/C(=N\NC(=O)Cc1c[nH]c2ccccc12)c1ccc2ccccc2c1,"inconclusive: 1.26 µM [inhibitor, full curve]"
5,CC(=O)c1ccc(NC(=O)COc2ccccc2-c2nc(-c3ccc(C)cc3)no2)cc1,"inconclusive: 17.8 µM [inhibitor, partial curve]"
6,COC(=O)/C(=N/Nc1ccccc1C)Sc1nnc(C(O)c2ccccc2)n1-c1ccccc1 (stereo not given),inactive
7,O=[N+]([O-])c1cccc(-c2cn3nc(-c4ccccc4)c(-c4ccccc4)nc3n2)c1,inactive
8,CC(=O)/C=C/c1ccc(C)o1,"inconclusive: 14.1 µM [inhibitor, partial curve]"
9,Cc1ccc2sc(-c3ccc(N)cc3)nc2c1,active: 4.47 µM
10,O=C(CCc1ccccc1)N/N=C/c1cccc([N+](=O)[O-])c1,"inconclusive: 15.8 µM [inhibitor, partial curve, poor fit]"
11,CCOC(=O)c1cnc2c(C#N)c(C)nn2c1C,"inconclusive: 3.98 µM [inhibitor, full curve]"
12,NC(=S)c1cc2ccc(O)cc2oc1=O,"inconclusive: 17.8 µM [inhibitor, partial curve]"
13,O=C(Nc1ccc2nc(SCC(=O)N3CCc4ccccc43)sc2c1)c1ccccc1,"inconclusive: 0.562 µM [inhibitor, full curve, poor fit]"
14,COc1ccc(-c2nc(CSCC(=O)N3CCc4ccccc4C3)c(C)o2)cc1OC,"inconclusive: 17.8 µM [inhibitor, partial curve]"
15,O=C(COc1ccc2ccccc2c1)NCCc1ccc2c(c1)OCCO2,"inconclusive: 35.5 µM [inhibitor, single point]"
16,O=C(Nc1ccc(N2CCCC(O)C2)cc1)c1snc2c(=O)[nH]cnc12 (stereo not given),active: 3.55 µM
17,COC(=O)c1sccc1NC(=O)c1cccc(OC)c1,"inconclusive: 25.1 µM [inhibitor, partial curve, poor fit]"
18,CCSc1nc(C)cc(C)c1S(=O)(=O)c1ccccc1C,"inconclusive: 39.8 µM [inhibitor, partial curve]"
19,COc1ccc(CNC(=O)C2CCCN(S(=O)(=O)c3ccc4c(ccn4C)c3)C2)c(OC)c1 (stereo not given),inactive
20,Cn1ccnc1C(=O)c1ccc(NN)c([N+](=O)[O-])c1,active: 22.4 µM
21,CCOc1ccc2nc(N3CCN(C(=O)c4ccco4)CC3)sc2c1,"inconclusive: 0.631 µM [inhibitor, full curve]"
22,CC(C)Cn1c(-c2nn(C)cc2Cl)n[nH]c1=S,inactive
23,CCOC(=O)c1cc2c(=O)n3ccccc3nc2n(CC2CCCO2)c1=NC(=O)c1ccccc1C (stereo not given),inactive
24,Nn1c(Cc2ccccc2)n[nH]c1=S,inactive

row,Structure (SMILES),Potency
1,O=c1c2ccccc2cnn1Cc1n[nH]c(=S)n1C1CC2CCC1C2 (stereo not given),inactive
2,CCOc1ccc(CCNC(=O)c2nnc(Cc3ccc(Cl)cc3Cl)o2)cc1OCC,inactive
3,CCN(CC)C(=O)C1CCCN(Cc2ccc(OC)c(C)c2C)C1 (stereo not given),inactive
4,Cc1ccc([N+](=O)[O-])cc1S(=O)(=O)N(C(=O)c1ccncc1)c1ccc2oc3c(c2c1)CCCC3,"inconclusive: 11.2 µM [inhibitor, partial curve, poor fit]"
5,CN(Cc1nccn1C)C(=O)CC1C(=O)NCCN1Cc1cccc(Oc2ccccc2)c1 (stereo not given),"inconclusive: 35.5 µM [inhibitor, single point]"
6,Cc1ccc(-n2nc3c(n2)/C(=N/O)CC/C3=N\O)cc1,inactive
7,CN(C)CCCn1c(SCC(=O)N2CC(=O)Nc3ccccc32)nc2ccccc2c1=O,"inconclusive: 39.8 µM [inhibitor, single point]"
8,Cc1ccc(C(=O)/C=C/Nc2cccc([N+](=O)[O-])c2)o1,active: 14.1 µM
9,c1ccc(-n2nnnc2SCc2cccc3nsnc23)cc1,inactive
10,COc1ccc(Cl)cc1-c1csc(N)n1,inactive
11,Cc1ccc(C)c(Cn2c(O)c(N=NC(=S)Nc3ccccc3F)c3ccccc32)c1,"inconclusive: 8.91 µM [inhibitor, partial curve]"
12,O=C(Nc1ccc2c(c1)OCCO2)c1ccccc1F,inactive
13,CC(C)(CC(=O)O)CC(=O)Nc1ccc(Oc2ccc(C(C)(C)C)cc2)nc1,"inconclusive: 3.16 µM [inhibitor, single point]"
14,Cc1ccc(S(=O)(=O)c2nc(Nc3ccccc3N3CCOCC3)sc2Cl)cc1,inactive
15,Cc1ccc(C(C)C)c(Oc2nnnn2-c2ccccc2)c1,inactive
16,O=C(NNC(=S)Nc1ccccc1)c1cc(-c2cccnc2)nc2ccccc12,"inconclusive: 14.1 µM [inhibitor, partial curve]"
17,CCCC(O)(CCN1CCOCC1)c1ccc(Cl)cc1 (stereo not given),inactive
18,CCCCC1=CC2=CC(=O)C(C)(OC(=O)CC)C(=O)C2=CN1Cc1ccc2c(c1)OCO2 (stereo not given),"inconclusive: 14.1 µM [inhibitor, partial curve]"
19,Cc1cc(C)cc(-n2c(SCC(=O)N3CCC(C)CC3)nc3c([nH]c4ccccc43)c2=O)c1,inactive
20,CCCCCOc1ccc(/C=c2\sc3ncnn3c2=O)cc1,"inconclusive: 15.8 µM [inhibitor, single point]"
21,COc1ccccc1/C=C/C=N/n1c(-c2n[nH]c3c2CCC3)n[nH]c1=S,"inconclusive: 31.6 µM [inhibitor, partial curve, poor fit]"
22,N#CCCCN1C(=O)C(=C(C#N)C#N)c2ccccc21,active: 31.6 µM
23,CCOc1ccc(-n2c(SCC(=O)NCc3ccccc3)nc3n[nH]c(C)c3c2=N)cc1,"inconclusive: 17.8 µM [inhibitor, single point]"
24,CCOC(=O)N1CCc2c(sc(NCc3ccc(N(CC)CC)cc3)c2C(=O)Nc2cc(OC)ccc2OC)C1,"inconclusive: 31.6 µM [inhibitor, single point]"

row,Structure (SMILES),Potency
1,CCC1CN(C(=O)N2CCC(C(=O)N3CCN(c4ccccc4)CC3)CC2)c2ccccc2O1 (stereo not given),"inconclusive: 25.1 µM [inhibitor, single point]"
2,Cc1ccc(-c2ccc([C@H]3[C@@H]4C=CCC[C@@]4(C)C(=O)N3Cc3ccccc3)c(F)c2)cc1,"inconclusive: 1.58 µM [inhibitor, full curve, poor fit]"
3,CN(C)CCC(=O)c1ccc(F)cc1,"inconclusive: 39.8 µM [inhibitor, single point]"
4,CC1CCc2c(sc(NC(=S)NC(=O)c3ccccc3)c2C#N)C1 (stereo not given),"inconclusive: 17.8 µM [inhibitor, single point]"
5,CCCCc1nnc(NC(=O)C2CC(=O)N(c3ccc(C)cc3)C2)s1 (stereo not given),inactive
6,Cc1ccc(NS(=O)(=O)c2ccc3c(c2)N(C)C(=O)CC(=O)N3C)cc1Cl,inactive
7,CC[N+]1(CC)CC2CCC(C)(C1)C2(C)C (stereo not given),inactive
8,Nc1scc(-c2ccncc2)c1Cl,"inconclusive: 10 µM [inhibitor, partial curve]"
9,Cc1ccc(-n2c(=O)c3ccc(C(=O)NCc4ccco4)cc3n(CC(=O)Nc3ccc(C)c(F)c3)c2=O)cc1,"inconclusive: 11.2 µM [activator, partial curve]"
10,O=C(Nc1cccc(Cl)c1)N1CC2CCCN2c2ccccc21 (stereo not given),"inconclusive: 28.2 µM [inhibitor, single point]"
11,Cc1ccc(Cc2cnc(NC(=O)/C(C#N)=C/c3ccc(-c4ccc([N+](=O)[O-])cc4)o3)s2)cc1,"inconclusive: 2.82 µM [inhibitor, full curve]"
12,CCCc1cc2c(n1Cc1cc(F)cc(F)c1)C(C)C1CN(C(=O)c3ccccc3)C(C)(C(=O)OC)C21 (stereo not given),"inconclusive: 28.2 µM [inhibitor, partial curve, poor fit]"
13,O=C(C1CCC(CNS(=O)(=O)c2ccc(Br)s2)CC1)N1CCN(c2ccc(F)cc2)CC1 (stereo not given),"inconclusive: 0.891 µM [inhibitor, full curve, poor fit]"
14,CCOc1ccc(C(=O)Nc2ccc3oc(-c4ccc(C)cc4C)nc3c2)cc1Br,"inconclusive: 0.794 µM [inhibitor, single point]"
15,Cc1ccc(Nc2nc(N)c([N+](=O)[O-])c(NCc3ccco3)n2)cc1,"inconclusive: 11.2 µM [inhibitor, partial curve]"
16,CCOc1ccccc1NC(=O)c1c2c(nc3ccccc13)C(=O)N(C1CCCCC1)C2,"inconclusive: 28.2 µM [inhibitor, single point]"
17,CC(=O)c1ccc(NC(=O)c2cc(Cl)sc2Cl)cc1,"inconclusive: 2.51 µM [inhibitor, full curve, poor fit]"
18,COc1ccc(Cn2ccc3nc(C)c(C(=O)Nc4cc(OC)c(OC)c(OC)c4)cc3c2=O)cc1,"inconclusive: 39.8 µM [activator, single point]"
19,COc1ccc(N=Cc2c(O)[nH]c3ccccc23)cc1OC,active: 14.1 µM
20,Cc1ccc(C(=O)CSC2=C(C#N)C(c3ccco3)CC(=O)N2)c(C)c1 (stereo not given),"inconclusive: 28.2 µM [inhibitor, single point]"
21,CCOC(=O)C1=C(CC)Nc2ccccc2N=C1NC(=O)Nc1ccc(Cl)c(Cl)c1,"inconclusive: 15.8 µM [activator, single point]"
22,CCOc1c(OC(C)=O)ccc(/C=C/c2ccc3cccc(OC)c3n2)c1[N+](=O)[O-],active: 5.62 µM
